According to PubChem BioAssay (NCATS):
Inconclusive results, whose numbers are uncertain, are shown with a selection of clear calls. Potencies of inconclusive entries are left out as doubtful fits. The source made the active and inactive calls. Calls come from the whole dose curve; as a rule, active = well fitted inhibition curve with a large enough effect; inconclusive = small, poorly fitted or top-dose-only effect; inactive = no such curve, though single readings can be large or run the other way.

Assay: Confirmatory screen NINDS Rhodamine qHTS for Zika virus inhibitors (AID 1347161); note: nearly all actives have a fitted effect of over 60% in size
Conditions: purified enzyme assay, Rhodamine110 substrate fluorescence, 15 min; series mostly up to 114 µM; activity change, negative = inhibition: at the top concentration
Source text: Avindra Nath, Ph.D., National Institute of Neurological Disorders and Stroke (NINDS), Bethesda, MD
Radhakrishnan Padmanabhan, Ph.D., Georgetown University (GU), Washington D.C.
Zika Virus causes congenital defects, including microcephaly and is associated with Guillain-Barre syndrome, eningoencephalitis and myelitis in infected adult. […] Using a target-based approach, we hope to establish a screening paradigm to uncover novel, cell-active NS2B-NS3 protease (Zika Virus) specific inhibitors from NCATS' collection of small molecules using qHTS.
Four assay panel was created to identify potential Zika Virus inhibitors. Namely, (1) GU unlinked NS2B-NS3 AMC tagged protease qHTS, (2) GU unlinked NS2B-NS3 Rhodamine tagged protease qHTS, (3) NINDS linked NS2B-NS3 AMC tagged protease qHTS, (4) NINDS linked NS2B-NS3 Rhodamine tagged protease qHTS. Active compounds were re-acquired and re-screened to confirm inhibition. Inhibitors were further screened against various confirmatory and counterscreens in dose response format.
Early Translation Branch (ETB)
National Center for Advancing Translational Sciences (NCATS), Rockville, MD
National Institute of Health (NIH), Bethesda, Maryland
For the linked assay, Nath lab (NINDS) provided the purified linked NS2B-NS3 protease which is consists of hydrophilic domain of NS2B linked to the NS3 protease domain by a flexible (-[…]-) linker. Control compound aprotinin is obtained from Thermo Scientific (#78432; Waltham, Massachusetts). Rhodamine110 substrate ([N-Cbz]-Nle-Lys-Arg-Arg-Rhod110-Arg-Arg-Lys-Nle-[N-Cbz]) was purchased from either Genscript or Bachem.
1536-well Protease (Rhodamine110 Substrate) Assay:
Briefly, 3 microL of enzyme (25 nM final concentration), in assay buffer (10 mM Tris-HCl pH 8.0 with 0.01% Tween 20) were dispensed into a 1,536-well solid-bottom black plate (Greiner Bio One, Monroe, NC). Twenty-three nL of compounds (final concentration range 7.28 nM to 114 microM) or control Aprotinin (final concentration range 3.47 nM to 114 microM) were transferred via Wako Pin-tool (Wako Automation, Richmond, VA). Samples were incubated (room temperature, protected from light) for 15 minutes followed by a 1 microL Rhodamine110 substrate addition (1.5 microM final concentration). Plates were then immediately read on a ViewLux High-throughput CCD imager (PerkinElmer, Waltham, MA) equipped with FITC fluorescence optics (480(20) nm excitation, 540(25) nm emission), then incubated (room temperature, protected from light) for 15 minutes (~15% conversion). The change in fluorescence intensity over the 15-minute reaction period was normalized against no-inhibitor and no-enzyme controls and the resulting percent inhibition data were fitted to a 4-parameter Hill equation. Aprotinin was used as intraplate control.
Potency is the fitted concentration of half-maximal effect; tags give direction and shape of the fitted curve.

SMILES	Potency	activity change, negative = inhibition
CCCCCCc1cc2cc(-c3cn4c(n3)sc3cc(OC)ccc34)c(=O)oc2cc1O	inconclusive [inhibitor, partial curve]	–
C=NC(C(=O)N[C@H]1C(=O)N2C1SC(C)(C)C2C(=O)O)c1ccccc1 (stereo not given in full)	inconclusive [inhibitor, partial curve, poor fit]	–
Cc1csc2nc(COC(=O)c3ccccc3NC(=O)c3ccc(C(C)(C)C)cc3)cc(=O)n12	–	inactive: -14.5%
Clc1ccc(-c2nn3c(COc4cc(Cl)c(OCc5nnc6sc(-c7ccc(Cl)cc7)nn56)cc4Cl)nnc3s2)cc1	active: 6.31 µM	–
Cc1ccc(-c2nnc(Nc3ccccc3)c3ccccc23)cc1S(=O)(=O)NCc1nc2ccccc2[nH]1	inconclusive [inhibitor, partial curve]	–
COC(=O)c1ccc(NC(=O)CSc2ncc3c(n2)-c2cc(Cl)ccc2N(Cc2ccccc2)S3(=O)=O)cc1	inconclusive [inhibitor, single point]	–
O=C1C2=C(Nc3ccccc3SC2c2ccc(Cl)c(Cl)c2)c2ccccc21 (stereo not given)	inconclusive [inhibitor, partial curve, poor fit]	–
O=C(COC(=O)c1cccc(NC(=O)c2ccc(Br)cc2)c1)c1ccc(Br)cc1	inconclusive [inhibitor, partial curve]	–
O=C(OCc1cc(=O)n2nc(C3CC3)sc2n1)c1ccc(NC(=O)c2ccccc2F)cc1	inconclusive [inhibitor, partial curve]	–
Cc1oc2c(cc(NS(=O)(=O)c3ccc(F)cc3)c3ccccc32)c1C(=O)OCc1ccccc1	inconclusive [inhibitor, partial curve]	–
CCOC(=O)c1ccc(NC(=O)Cn2nnc(-c3ccc(C(F)(F)F)cc3)n2)cc1	inconclusive [inhibitor, partial curve, poor fit]	–
O=C(Nc1cccc(C(=O)OCc2cc(=O)n3nc(C4CC4)sc3n2)c1)c1ccc(F)cc1	active: 31.6 µM	–
O=C(Nc1ccccc1C(=O)OCc1cc(=O)n2nc(C3CC3)sc2n1)c1cccc(Cl)c1	–	inactive: -9.41%
O=C(Nc1ccc(C(=O)OCc2cc(=O)n3nc(C4CC4)sc3n2)cc1)c1cccc(F)c1	–	inactive: -16.5%
COc1cccc(C(=O)Nc2ccc(C(=O)OCc3cc(=O)n4nc(C5CC5)sc4n3)cc2)c1	inconclusive [inhibitor, partial curve]	–
CON(C)Cc1ccc(O)c2c1C[C@H]1C[C@H]3[C@H](N(C)C)C(=O)C(C(N)=O)=C(O)[C@@]3(O)C(=O)C1=C2O	inconclusive [inhibitor, full curve]	–
O=C(OCC#CCSc1nnc(-c2cccc3ccccc23)o1)c1ccc(OC(F)F)cc1	–	inactive: 5.33%
O=C1OCC2=C1C(c1cccc(Cl)c1)CC(=O)N2c1ccc(C(F)(F)F)cc1 (stereo not given)	–	inactive: 4.51%
O=C(O)COc1ccccc1C1Nc2ccccc2-c2nnc(SCc3ccc(Cl)cc3)nc2O1 (stereo not given)	inconclusive [inhibitor, single point]	–
Cn1cc(C(F)(F)F)nc1-c1ccc(OCC(O)CNCCOc2ccc(O)c(C(N)=O)c2)cc1 (stereo not given)	–	inactive: 20.8%

SMILES	Potency	activity change, negative = inhibition
S=c1[nH]c(-c2ccccc2)cn1-c1ccccc1	inconclusive [inhibitor, partial curve]	–
Cc1ccc(Nc2nnc(-c3ccc(C)c(S(=O)(=O)NCc4nc5ccccc5[nH]4)c3)c3ccccc23)cc1	inconclusive [inhibitor, partial curve]	–
Cc1ccc(-c2nnc(Nc3ccc(S(N)(=O)=O)cc3)c3ccccc23)cc1S(=O)(=O)N1CCOCC1	inconclusive [inhibitor, partial curve]	–
COc1ccc(NS(=O)(=O)c2ccc(NS(=O)(=O)c3ccc4c(c3)OCCO4)cc2)cc1	inconclusive [inhibitor, single point]	–
O=C(COc1ccccc1F)Nc1ccc(C(=O)OCc2cc(=O)n3nc(C4CC4)sc3n2)cc1	inconclusive [inhibitor, partial curve]	–
CCCCOC(=O)c1ccc(NC(=O)c2ccc3c(c2)CCN3S(=O)(=O)c2ccccc2)cc1	–	inactive: 9.53%
CC(C)c1nn2c(=O)cc(COC(=O)c3ccccc3NC(=O)c3cccc(Cl)c3)nc2s1	–	inactive: 2.86%
O=C(COc1ccc(F)cc1)Nc1ccccc1C(=O)OCc1cc(=O)n2nc(C3CC3)sc2n1	inconclusive [inhibitor, full curve]	–
CC1c2cccc(O)c2C(O)=C2C(=O)C3(O)C(O)=C(C(N)=O)C(=O)C(N(C)C)C3C(O)C21 (stereo not given)	inconclusive [inhibitor, partial curve]	–
O=C(O)c1c(Sc2ccccc2)c2cc(Cl)ccc2n1Cc1ccc(Cl)cc1	active: 1.24 µM	–
O=C(OCc1cc(=O)n2nc(C3CC3)sc2n1)c1cccc(NC(=O)c2ccccc2Cl)c1	inconclusive [inhibitor, partial curve]	–
CCCCc1nn2c(=O)cc(COC(=O)c3ccc(NC(=O)CCc4ccccc4)cc3)nc2s1	inconclusive [inhibitor, partial curve]	–
COc1ccccc1C(=O)Nc1ccc(C(=O)OCc2cc(=O)n3c4c(sc3n2)CCCC4)cc1	inconclusive [inhibitor, full curve]	–
Cc1cccc(C(=O)NCN2CCN(c3ccccc3C#N)CC2)c1	inconclusive [inhibitor, full curve, poor fit]	–
O=C(O)c1cc(-n2c(/C=C\c3ccc(F)cc3)nc3ccccc3c2=O)ccc1Cl	inconclusive [inhibitor, partial curve]	–
CC(C)=CCc1c2c(c3occ(-c4ccc(O)c(O)c4)c(=O)c3c1O)C=CC(C)(C)O2	active: 12.4 µM	–
Cc1cccc(C)c1-n1c(SCC(=O)Nc2ccc(C(=O)O)cc2)nnc1-c1cccc([S+](=O)([O-])N2CCCC2)c1	inconclusive [inhibitor, single point]	–
COc1ccccc1N1CCN(CCn2c(=O)c3c(c4ccccc4n3C)n(C)c2=O)CC1	inconclusive [inhibitor, partial curve]	–
Cc1csc2nc(COC(=O)c3ccc(NC(=O)c4ccccc4Br)cc3)cc(=O)n12	–	inactive: -19.6%
CCOC(=O)c1c(-c2ccccc2)oc2ccc(NS(=O)(=O)c3ccc(C(C)C)cc3)cc12	inconclusive [inhibitor, single point]	–
